# The supplement of paper PMC8728848
# This is one part of the list.
# Experiments:
# Assay in all cases: glycan array binding signal (z-score within array); higher = stronger binding
# Conditions in all cases: glycan notation: IUPAC condensed, linker removed
# [1] = target: Gal(b1-4)GlcNAc(b1-3)Gal(b1-4)GlcNAc(b1-3)Gal(b1-4)GlcNAc
# Summary of the method: (§1)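 The binding signal is a Z-score computed within each array and averaged over linkers. Arrays of the same protein sequence at different concentrations or buffers were also averaged together. Data originate from 3228 arrays in the Consortium for Functional Glycomics database, kept only where the protein sequence was available.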
# [2] = target: Gal(b1-4)GlcNAc(b1-3)Gal(b1-4)[Fuc(a1-3)]GlcNAc(b1-3)Gal(b1-4)[Fuc(a1-3)]GlcNAc
# Summary of the method: as §1
# [3] = target: Gal(b1-4)GlcNAc(b1-3)GalNAc
# Summary of the method: as §1
# [4] = target: Gal(b1-4)GlcNAc(b1-3)[Gal(b1-4)GlcNAc(b1-6)]Gal(b1-4)GlcNAc
# Summary of the method: as §1
# [5] = target: Gal(b1-4)GlcNAc(b1-3)[GlcNAc(b1-6)]Gal(b1-4)GlcNAc
# Summary of the method: as §1
# [6] = target: Gal(b1-4)GlcNAc(b1-6)Gal(b1-4)GlcNAc
# Summary of the method: as §1
# [7] = target: Gal(b1-4)GlcNAc(b1-6)Gal(b1-4)GlcNAc(b1-6)GalNAc
# Summary of the method: as §1
# [8] = target: Gal(b1-4)GlcNAc(b1-6)GalNAc
# Summary of the method: as §1
# [9] = target: Gal(b1-4)GlcNAc(b1-6)[Gal(b1-3)]GalNAc
# Summary of the method: as §1
# Gal3S(b1-3)GalNAc = target: Gal3S(b1-3)GalNAc
# Summary of the method: as §1
# Gal3S(b1-3)GlcNAc = target: Gal3S(b1-3)GlcNAc
# Summary of the method: as §1
# [10] = target: Gal3S(b1-3)[Fuc(a1-4)]GlcNAc
# Summary of the method: as §1
# Gal3S(b1-4)Glc = target: Gal3S(b1-4)Glc
# Summary of the method: as §1
# Gal3S(b1-4)Glc6S = target: Gal3S(b1-4)Glc6S
# Summary of the method: as §1
# Gal3S(b1-4)GlcNAc = target: Gal3S(b1-4)GlcNAc
# Summary of the method: as §1
# Gal3S(b1-4)GlcNAc6S = target: Gal3S(b1-4)GlcNAc6S
# Summary of the method: as §1
# [11] = target: Gal3S(b1-4)[Fuc(a1-3)]Glc
# Summary of the method: as §1
# Gal3S4S(b1-4)GlcNAc = target: Gal3S4S(b1-4)GlcNAc
# Summary of the method: as §1
# Gal3S6S(b1-4)GlcNAc = target: Gal3S6S(b1-4)GlcNAc
# Summary of the method: as §1
# Gal3S6S(b1-4)GlcNAc6S = target: Gal3S6S(b1-4)GlcNAc6S
# Summary of the method: as §1
# Gal4S(b1-4)GlcNAc = target: Gal4S(b1-4)GlcNAc
# Summary of the method: as §1
# Gal4S6S(b1-4)GlcNAc = target: Gal4S6S(b1-4)GlcNAc
# Summary of the method: as §1
# Gal6S(b1-4)Glc = target: Gal6S(b1-4)Glc
# Summary of the method: as §1
# Gal6S(b1-4)Glc6S = target: Gal6S(b1-4)Glc6S
# Summary of the method: as §1
# Gal6S(b1-4)GlcNAc = target: Gal6S(b1-4)GlcNAc
# Summary of the method: as §1
# Gal6S(b1-4)GlcNAc6S = target: Gal6S(b1-4)GlcNAc6S
# Summary of the method: as §1
# GalNAc(a1-3)Gal = target: GalNAc(a1-3)Gal
# Summary of the method: as §1
# GalNAc(a1-3)GalNAc = target: GalNAc(a1-3)GalNAc
# Summary of the method: as §1
# GalNAc(b1-3)Gal = target: GalNAc(b1-3)Gal
# Summary of the method: as §1
# [12] = target: GalNAc(b1-3)Gal(a1-4)Gal(b1-4)GlcNAc
# Summary of the method: as §1
binder,measurement,setting,value
"LSECtin (Homo sapiens), Q6UXB4 (protein) MEQESALRELRERVTQGLAEAGRGREDVRTELFRALEAVRLQNNSCEPCPTSWLSFEGSCYFFSVPKTTWAAAQDHCADASAHLVIVGGLDEQGFLTRNTRGRGYWLGLRAVRHLGKVQGYQWVDGVSLSFSHWNQGEPNDAWGRENCVMMLHTGLWNDAPCDSEKDGWICEKKAQLLTPPSALEPRPLQHVVSWGLLTSLAPGADCQRVFSSSSTAAESQKHLAQHSPVQPSAWALGPPCRPHPNSTHADPT",glycan array binding signal (z-score),[1],-0.308
same,glycan array binding signal (z-score),[2],-0.289
same,glycan array binding signal (z-score),[3],-0.303
same,glycan array binding signal (z-score),[4],-0.28
same,glycan array binding signal (z-score),[5],-0.307
same,glycan array binding signal (z-score),[6],-0.301
same,glycan array binding signal (z-score),[7],-0.309
same,glycan array binding signal (z-score),[8],-0.297
same,glycan array binding signal (z-score),[9],-0.295
same,glycan array binding signal (z-score),Gal3S(b1-3)GalNAc,-0.29
same,glycan array binding signal (z-score),Gal3S(b1-3)GlcNAc,-0.279
same,glycan array binding signal (z-score),[10],0.3
same,glycan array binding signal (z-score),Gal3S(b1-4)Glc,-0.267
same,glycan array binding signal (z-score),Gal3S(b1-4)Glc6S,-0.291
same,glycan array binding signal (z-score),Gal3S(b1-4)GlcNAc,-0.283
same,glycan array binding signal (z-score),Gal3S(b1-4)GlcNAc6S,-0.279
same,glycan array binding signal (z-score),[11],-0.173
same,glycan array binding signal (z-score),Gal3S4S(b1-4)GlcNAc,-0.295
same,glycan array binding signal (z-score),Gal3S6S(b1-4)GlcNAc,-0.29
same,glycan array binding signal (z-score),Gal3S6S(b1-4)GlcNAc6S,-0.302
same,glycan array binding signal (z-score),Gal4S(b1-4)GlcNAc,-0.291
same,glycan array binding signal (z-score),Gal4S6S(b1-4)GlcNAc,-0.294
same,glycan array binding signal (z-score),Gal6S(b1-4)Glc,-0.276
same,glycan array binding signal (z-score),Gal6S(b1-4)Glc6S,-0.277
same,glycan array binding signal (z-score),Gal6S(b1-4)GlcNAc,-0.285
same,glycan array binding signal (z-score),Gal6S(b1-4)GlcNAc6S,-0.28
same,glycan array binding signal (z-score),GalNAc(a1-3)Gal,-0.26
same,glycan array binding signal (z-score),GalNAc(a1-3)GalNAc,-0.295
same,glycan array binding signal (z-score),GalNAc(b1-3)Gal,-0.287
same,glycan array binding signal (z-score),[12],-0.267
